# Assay results published in PubChem BioAssay AID588855 (National Center for Advancing Translational Sciences (NCATS), 2011).
# In all, about 410,000 compounds went through this assay and about 5,000 (1.2%) were called active. The inconclusive results got no clear call from the source; some entries with a clear call stand among them for comparison. Calls come from the whole dose curve; as a rule, active = well fitted inhibition curve with a large enough effect; inconclusive = small, poorly fitted or top-dose-only effect; inactive = no such curve, though single readings can be large or run the other way. A potency beside an inconclusive call is a rough fit, not a confirmed value.
# Assay: qHTS for Inhibitors of TGF-b; note: nearly all actives have a fitted effect of over 65% in size
# Conditions: HepG2 CAGA-GFP TGF-b/SMAD3 reporter, GFP fluorescence, 18 h, TGF-beta stimulated, 500 pg/mL final; series mostly up to 46.1 µM; activity, negative = inhibition: at the top concentration
# In short: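 GFP signal (ex488/em500-530) from TGF-beta-stimulated HEPG2 CAGA-GFP cells, 500 pg/mL final, 18 h at 37 degrees C in DMEM plus 1% FBS, normalized to unstimulated and DMSO-stimulated controls.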
# % is set by controls: 0 for no effect and ±100 for the full control effect; potency is the fitted concentration of half-maximal effect; tags give direction and shape of the fitted curve.
SMILES,Potency,"activity, negative = inhibition"
Cc1ccc(NC(=O)CN2CCCC2c2cccs2)cc1S(=O)(=O)N1CCCCC1 (configuration not stated),"inconclusive: 28.2 µM [inhibitor, single point]",–
Cn1c(C(=O)OC(C(=O)NC2CCCC2)c2cccnc2)cc2sccc21 (configuration not stated),"inconclusive: 5.62 µM [inhibitor, single point]",–
CCOC(=O)c1nnn(CC(=O)NC(=O)Nc2cccc(CC)c2)c1C(=O)OCC,"inconclusive: 12.6 µM [inhibitor, single point]",–
Cc1ccc(Nc2cc(C)c3ccc(O)cc3n2)cc1C,"inconclusive: 11.2 µM [inhibitor, partial curve, poor fit]",–
COc1ccc(NC(=O)N2CCCC2C(=O)NCc2cccs2)cc1 (configuration not stated),"inconclusive: 6.31 µM [inhibitor, single point]",–
O=C(COc1ccc(Cl)cc1)NCCc1csc(-c2ccc(F)cc2)n1,–,inactive: -13.8%
CCOC(=O)Nc1ccc(S(=O)(=O)N2CCC(c3nc4ccccc4[nH]3)CC2)cc1,–,inactive: -16.6%
Nc1cc(N)nc(SCC(=O)Nc2cc(S(=O)(=O)N3CCOCC3)ccc2Cl)n1,"inconclusive: 5.62 µM [inhibitor, single point]",–
NC(=O)c1ncn([C@@H]2O[C@H](CNCc3cccc(OC4CCCC4)c3)[C@@H](O)[C@H]2O)n1,–,inactive: -21.2%
OC1(c2ccc(F)cc2)CSC(=Nc2cccnc2)N1Cc1ccco1 (configuration not stated),–,inactive: -2.34%
COc1ccc(N2CC(O)(c3ccc(C)cc3)[N+]3=C2CCCC3)cc1 (configuration not stated),–,inactive: -13.5%
CCOCCCNC(=O)C(c1ccc(C)cc1)N(Cc1cccs1)C(=O)c1ccccc1O (configuration not stated),–,inactive: 16.8%
COc1ccc(-n2nc3c(N4CCC(C(=O)N5CCCCCC5)CC4)nnc(C)c3c2C)cc1,"inconclusive: 14.1 µM [inhibitor, partial curve]",–
COc1cccc(NC(=O)N2CCN(c3nc(-c4cccc(OC)c4)cs3)CC2)c1,"inconclusive: 8.91 µM [inhibitor, partial curve, poor fit]",–
COc1cccc(N2CCN(c3nc(-c4ccccc4C)cc(=O)[nH]3)CC2)c1,"inconclusive: 11.2 µM [inhibitor, partial curve]",–
CC(C)c1nc2c(c(=O)c3ccccc3n2C)c(=O)n1CCc1ccccc1,"inconclusive: 28.2 µM [inhibitor, single point]",–
O=C(Nc1ccccc1N1CCCCC1)C1CCN(S(=O)(=O)c2cccc(C(F)(F)F)c2)CC1,–,inactive: -8.32%
CC(=O)n1cc([C@@H]2C=C(C(=O)N3CCN(C)CC3)O[C@H](OCc3ccc(CO)cc3)C2)c2ccccc21,–,inactive: -2.85%
C/C(=N\NC(=O)C(=O)Nc1cc(Cl)ccc1Cl)c1ccncc1,–,inactive: -16.8%
CN1CCN(CCCOc2ccc(-c3ccccc3)cc2)CC1,"inconclusive: 35.5 µM [inhibitor, single point]",–
COc1ccc(S(=O)(=O)NCC(c2ccco2)N2CCc3ccccc32)cc1 (configuration not stated),"inconclusive: 35.5 µM [inhibitor, single point]",–
CCCOc1ccc(F)cc1-c1cc(C(=O)NCc2ccc(C(F)(F)F)cc2)[nH]n1,"inconclusive: 14.1 µM [inhibitor, partial curve]",–
Cc1nc(-c2ccc(C)c(S(=O)(=O)N3CCC(C(=O)Nc4ccc(Cl)cc4)CC3)c2)no1,"inconclusive: 14.1 µM [inhibitor, partial curve]",–

SMILES,Potency,"activity, negative = inhibition"
CCOC(=O)c1ccc(N(C(=O)c2ccccc2)c2ccccc2)cc1,"inconclusive: 35.5 µM [inhibitor, single point]",–
Cc1ccccc1NC(=O)c1ccc(F)c(S(=O)(=O)N(C)C2CCCCC2)c1,–,inactive: -21.6%
CC(=O)Nc1ccc(Cl)c(C(N)=O)c1,"inconclusive: 35.5 µM [inhibitor, partial curve, poor fit]",–
COc1ccc(/C=N/OCC(=O)N2CC3(C)CC2CC(C)(C)C3)cc1OC (configuration not stated),"inconclusive: 35.5 µM [inhibitor, single point]",–
O=C1C2=C(Nc3ccccc3SC2c2ccccc2C(F)(F)F)c2ccccc21 (configuration not stated),"inconclusive: 20 µM [inhibitor, single point]",–
Cc1onc(-c2c(F)cccc2Cl)c1C(=O)N1CCN(S(C)(=O)=O)CC1,–,inactive: 13.8%
CCN(CC)S(=O)(=O)c1ccc(NC2CCN(Cc3ccccc3)CC2)nc1,–,inactive: -6.45%
CC1(Cc2cc(Cl)ccc2C(F)(F)F)C(=O)Nc2ccc(-c3ccc(F)c(Cl)c3)cc21 (configuration not stated),"inconclusive: 35.5 µM [inhibitor, single point]",–
Cc1[nH]c(=S)c(C#N)c(C)c1C(=O)Nc1ccccc1,–,inactive: -16.5%
O=C1/C(=C/c2ccccc2F)SC(=S)N1CC(=O)N1CCCCC1c1cccnc1 (configuration not stated),"inconclusive: 15.8 µM [inhibitor, partial curve, poor fit]",–
C#CCSc1nc(Cc2ccc(Cl)cc2)nc2ccccc12,–,inactive: 19.4%
Cc1nn(C)c(C)c1S(=O)(=O)N(CC(=O)N1CCN(c2ccccc2)CC1)c1ccc(C(C)C)cc1,"inconclusive: 0.1 µM [inhibitor, full curve, poor fit]",–
COc1ccc(Cn2c(=O)sc3ccccc32)cc1OC,"inconclusive: 3.16 µM [inhibitor, partial curve, poor fit]",–
O=C(NC(=S)Nc1cc(Cl)ccc1N1CCOCC1)c1ccc(-c2cccc(Cl)c2)o1,–,inactive: -5.26%
CCOC(=O)c1cc(C#N)c(N2CCN(C(=O)c3cccc(C(F)(F)F)c3)CC2)nc1C(F)(F)F,"inconclusive: 12.6 µM [inhibitor, partial curve, poor fit]",–
Cc1ccc(-n2c(SCC(=O)NCc3ccccc3)nc3n[nH]c(C)c3c2=N)cc1Cl,"inconclusive: 7.94 µM [inhibitor, partial curve, poor fit]",–
CCc1nc(C)cn1S(=O)(=O)c1cc(C)c(OC)c(C)c1C,"inconclusive: 5.62 µM [inhibitor, partial curve, poor fit]",–
NC(Cc1ccccc1)c1csc(NC(=O)c2cccc(OC(F)(F)F)c2)n1 (configuration not stated),"inconclusive: 35.5 µM [inhibitor, single point]",–
O=C(NCC(c1cccs1)S(=O)(=O)c1cccs1)c1ccc(Cl)cc1 (configuration not stated),–,inactive: -21.5%
CCN(CC)CCNS(=O)(=O)c1ccc(OC)c(Br)c1,–,inactive: -18.6%
Cc1ccc(-n2c(SCC(=O)N3CCOCC3)nnc2-c2ccncc2)cc1C,–,inactive: -0.41%
CC(C)C(=O)Nc1ccc2c3c(cccc13)CC2,"inconclusive: 3.98 µM [inhibitor, single point]",–
CCCCNc1oc(-c2cccs2)nc1S(=O)(=O)c1ccccc1,"inconclusive: 11.2 µM [inhibitor, single point]",–

SMILES,Potency,"activity, negative = inhibition"
COc1ccc(Cl)cc1NC(=O)C/C(C)=N/NC(=O)C(=O)NCc1ccccc1,–,inactive: 4.2%
Cc1cccc(-c2nc3nc(C)cc(NCc4ccccc4Cl)n3n2)c1,"inconclusive: 25.1 µM [inhibitor, single point]",–
COc1ccc(CNC(=O)c2sc3nc4c(c(C(F)(F)F)c3c2N)CCC4)cc1OC,"inconclusive: 11.2 µM [inhibitor, partial curve, poor fit]",–
COc1ccc(-c2cc(C(F)(F)F)nc(-n3nc(C(F)(F)F)cc3C)n2)cc1,"inconclusive: 35.5 µM [inhibitor, partial curve, poor fit]",–
Cc1c(CC(=O)N2CCC(O)CC2)c(=O)oc2cc3c(cc12)CCC1(CCCCC1)O3,"inconclusive: 6.31 µM [inhibitor, single point]",–
O=C(Cc1ccccc1)NN1C(=O)C2C3C=CC(C3)[C@@H]2C1=O (some centres not stated),"inconclusive: 15.8 µM [inhibitor, single point]",–
O=C(CSc1ccc2c(c1)OCCO2)NCCc1ccc(Cl)cc1Cl,"inconclusive: 20 µM [inhibitor, single point]",–
CC(C)OCCCNC(=O)C(=O)Nc1ccc2nc3n(c(=O)c2c1)CCCCC3,–,inactive: -4.63%
Cc1ccc(Cn2ccc(-c3cnc(-c4ccccc4)s3)n2)cc1,"inconclusive: 35.5 µM [inhibitor, single point]",–
Cc1cccc(Cn2c(=O)n(Cc3ccccc3)c(=O)c3oc4ccccc4c32)c1,"inconclusive: 1.58 µM [inhibitor, full curve]",–
O=C(CCS(=O)(=O)c1ccc(Br)cc1)Nc1ccc(Cl)c(C(F)(F)F)c1,"inconclusive: 3.16 µM [inhibitor, partial curve, poor fit]",–
CC(=NC1CC1)C1=C(O)c2ccccc2C1=O,"inconclusive: 3.55 µM [inhibitor, single point]",–
CCc1nc(SCC(=O)O)c(C#N)cc1C,–,inactive: -8.44%
O=C(CCNS(=O)(=O)c1ccc(Br)s1)Nc1ccc(Cl)cc1,"inconclusive: 10 µM [inhibitor, single point]",–
O=C1NC(=O)/C(=C/c2ccc(-c3cccc([N+](=O)[O-])c3)o2)S1,–,inactive: 5.34%
Cc1csc2ncnc(NNC(=O)c3ccc(Cl)cc3)c12,"inconclusive: 3.55 µM [inhibitor, full curve]",–
CC(c1ccccc1)N1CNc2c(c(=O)n(C)c(=O)n2C)C1 (configuration not stated),"inconclusive: 15.8 µM [inhibitor, partial curve]",–
Cc1ccc(CCC2C3=C(CCCC3=O)OC3=C2C(=O)CCC3)cc1,"inconclusive: 17.8 µM [inhibitor, single point]",–
Cc1cccc(Cn2cc3c(=O)n(Cc4cccc(F)c4)nc-3c3ccccc32)c1,–,inactive: 5.67%
Cc1cccc(CNc2ccc(C(CC(N)=O)NC(=O)Cc3cccc4ccccc34)cc2[N+](=O)[O-])c1 (configuration not stated),"inconclusive: 3.16 µM [inhibitor, full curve]",–
O=C(c1cscn1)N1CCCC(N2CCN(c3ccc(F)cc3)CC2)C1 (configuration not stated),"inconclusive: 3.16 µM [inhibitor, partial curve]",–
